Assay results as given in the supplement of paper PMC10126150.
Sequences with one replicate were seen in a single cluster, so their values are uncertain.

Test system: ATP
Assay: switch fluorescence ratio, 500 uM ATP over buffer (Cy3 cluster intensity, sum of 5 cycles each) (fold (ratio)); higher = stronger signal-on switching upon ATP binding; sequences stand for … in TCGTCGGCAGCGTCAGATGTGTATAAGAGACAGTTTTTTTTTTTTTTTTTTTTTTTTT…TC
Settings: aptamer strand: ATP DNA aptamer (quencher-CACCTGGGGGAGTATTGCGGAGGAAGG + anchor), 100 nM annealed; ATP concentration: 500 uM; one replicate
Outline: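 Imaging in selection buffer was followed by imaging after 15 min with 500 uM ATP at 22 °C, for Cy3-labelled switching-strand clusters annealed to 100 nM quencher-labelled ATP aptamer on a modified Illumina MiSeq flow-cell. Five of these buffer/ATP cycles ran, separated by NaOH stripping and re-annealing. The fluorescence ratio per cluster is summed target-cycle over summed buffer-cycle Cy3 intensity, averaged per switch-domain sequence; clusters outside 100-1000 RFU were removed.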
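Further: ATP exposure 15 min at 22 °C before imaging.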

Sequence	switch fluorescence ratio
CGGACGGTA	1.14
CGGACTTAGA	0.986
CGGAGAAAGC	1.26
CGGAGATTTC	1.13
CGGAGCGTAA	4.22
CGGAGCTAGT	2.16
CGGAGCTGGT	1.36
CGGAGTAGT	1.23
CGGATACATT	1.02
CGGATACCGA	1.23
CGGATAGGGT	0.954
CGGATCGAGG	1.04
CGGATGCGAG	0.966
CGGATGGAGC	1
CGGATTCGCG	1.02
CGGATTTTAG	1.03
CGGCAGAGCC	1.03
CGGCAGATCA	0.978
CGGCAGGGCC	0.99
CGGCCCCGAC	1.05
CGGCCCGAAT	1.01
CGGCGAAAGT	1.01
CGGCGAAATG	1.01
CGGCGACTGG	0.963
CGGCGATACG	2.82

Sequence	switch fluorescence ratio
CGGCGCAAGT	3.92
CGGCGCCGGC	1.02
CGGCGCGCCT	0.996
CGGCGGAAGG	1.02
CGGCGGGATC	1.11
CGGCGGGCCC	0.987
CGGCGTATCG	0.968
CGGCGTGCAC	1.01
CGGCGTTGTG	1.02
CGGCTATAGG	0.976
CGGCTCCAC	1.1
CGGCTCTAAC	1.07
CGGCTGAGCT	1.01
CGGCTTTTGA	0.947
CGGGAAAGAC	1.54
CGGGAAAGGA	1
CGGGAATTCA	1.04
CGGGACGCTT	1
CGGGAGGACA	1.01
CGGGAGGCAG	1.08
CGGGATATCC	1.03
CGGGATGCTC	1.52
CGGGATTTTG	0.943
CGGGCACGAC	0.997
CGGGCATGTG	0.992

Sequence	switch fluorescence ratio
CGGGCCTGTT	0.982
CGGGCGGTGT	1.07
CGGGCTCGTC	0.999
CGGGCTGGTA	0.962
CGGGCTGTGT	1
CGGGCTTCGG	1.02
CGGGCTTTTA	0.988
CGGGGAGCGC	0.951
CGGGGCTATA	1.05
CGGGGCTTTT	0.94
CGGGGGCGTA	0.97
CGGGGTGGAG	1.08
CGGGGTGGG	1.08
CGGGTACTAA	1.03
CGGGTATTAC	1.12
CGGGTCACTG	1
CGGGTCCTGG	0.975
CGGGTCGTTT	0.971
CGGGTCTTGA	0.976
CGGGTGGAGT	0.983
CGGGTGGTAG	0.934
CGGGTTATGC	0.937
CGGGTTCCGC	1.02
CGGGTTTAGC	0.975
CGGTAAACCG	0.987

Sequence	switch fluorescence ratio
CGGTAACCGT	0.986
CGGTAAGAAT	1.01
CGGTAATAAG	1.02
CGGTACAGCT	0.988
CGGTACCGAG	1.02
CGGTACTCTT	1.05
CGGTAGAGCG	0.946
CGGTAGAGGC	1
CGGTAGCAGG	1.12
CGGTAGGGTC	1
CGGTAGGTAA	0.991
CGGTAGTCAA	1.56
CGGTATACAG	0.979
CGGTATCTTC	0.967
CGGTATTTGA	1.07
CGGTCCAAAG	0.98
CGGTCCAACT	1.02
CGGTCCAGAG	1.03
CGGTCCGATG	1.04
CGGTCGATTG	0.941
CGGTCGCAGG	1.03
CGGTCTACGG	0.97
CGGTCTGCAA	6.27
CGGTGAGACA	1.03
CGGTGATAGT	1.02

Sequence	switch fluorescence ratio
CGGTGCTAAT	1.02
CGGTGTATGT	0.965
CGGTGTCAG	0.994
CGGTGTCGAC	0.993
CGGTGTTGCG	0.979
CGGTTATCCC	0.994
CGGTTGCGCG	0.976
CGGTTGGTCT	1.04
CGGTTTGTCA	0.982
CGGTTTTGGT	0.963
CGTAACCTGA	1.43
CGTAACGGGG	0.96
CGTAACTTGC	1.2
CGTAAGCCGA	1.01
CGTAATCCGT	0.996
CGTAATCTAG	0.971
CGTAATGGTC	1.35
CGTAATTAGC	1.34
CGTACAAATC	1.13
CGTACAAATG	1.01
CGTACGGGAA	1.01
CGTAGAAAAA	1.01
CGTAGAGGGA	0.98
CGTAGAGGGT	1.01
CGTAGATAAG	1.01

Sequence	switch fluorescence ratio
CGTAGCCGAT	0.995
CGTAGCGTAC	5
CGTAGCTACA	1.2
CGTAGCTATT	2.67
CGTAGCTCCG	1.11
CGTAGCTCCT	1.04
CGTAGCTGAG	1.08
CGTAGGGCTC	1.04
CGTAGGGGCG	0.888
CGTAGGTGGG	0.986
CGTAGTCAAG	1.15
CGTAGTGCGT	0.962
CGTAGTGGC	1.15
CGTAGTTGGT	1.01
CGTATAGCAA	3.42
CGTATAGCTT	1.06
CGTATATAGG	1.01
CGTATATCGT	0.973
CGTATCCCCG	1.08
CGTATGAATG	1.06
CGTATGAG	0.978
CGTATGCAGC	1
CGTATGTGAC	0.945
CGTATGTGTG	0.975
CGTATTAGTT	0.975

Sequence	switch fluorescence ratio
CGTATTCAGC	1.01
CGTATTGAAC	1.02
CGTATTGAAG	0.993
CGTATTTTTG	0.994
CGTCAAGGCG	0.993
CGTCACCCGC	1.14
CGTCATAGGA	0.998
CGTCATATCA	1.01
CGTCATCGAC	1.02
CGTCATCGTG	0.969
CGTCATTTTT	1
CGTCCAGGGA	1.18
CGTCCCAGTT	1.06
CGTCCCCGAC	1.07
CGTCCTCGGC	1.26
CGTCGACTTA	1
CGTCGGCGAC	0.996
CGTCGGGTTC	1.02
CGTCGTCCTC	1
CGTCGTTAAC	1.14
CGTCGTTTG	1.01
CGTCTAGATG	1.04
CGTCTCCCGT	1.04
CGTCTGCCTA	1.05
CGTCTGGAGG	1.01

Sequence	switch fluorescence ratio
CGTCTTTCAA	1.03
CGTCTTTGAA	0.984
CGTGAAGGG	0.958
CGTGAAGGGC	0.957
CGTGAATATT	1.16
CGTGAATGAA	0.955
CGTGAATT	0.942
CGTGACAGAC	1.09
CGTGACATA	1.01
CGTGACGGCA	1
CGTGAGAACG	0.965
CGTGAGGTTC	0.961
CGTGAGTGAA	1.03
CGTGAGTTGT	1.02
CGTGATGTTG	1
CGTGATTAA	1.01
CGTGATTGAT	0.995
CGTGCCAATT	0.989
CGTGCCATGA	0.993
CGTGCCGTCA	1.07
CGTGCGGGAG	0.961
CGTGCGGTCC	1.02
CGTGCTCGTA	0.992
CGTGGCCACC	1.02
CGTGGCTCTG	0.999
